Test results from the supplement of paper PMC4967469.

Tests used:
Assay in all cases: Viability of human cancer cell lines after 72 h of drug (GDSC screen)
OSI-027 = compound: COc1cccc2cc(-c3nc([C@H]4CC[C@H](C(=O)O)CC4)n4ncnc(N)c34)[nH]c12 [OSI-027]; details: top dose 20 µM
Method: (§1)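 Human cancer cell lines in 384-well plates, medium with 10% serum, drug for 72 h over a 256-fold dose range (nine 2-fold or five 4-fold steps up to the top dose). Adherent lines were fixed and stained with the nucleic acid dye Syto60, suspension lines read with resazurin; signal relative to control wells, capped at 0 and 100%. One two-parameter sigmoid per drug and line, fitted in a mixed model over all curves with the slope shared within a line.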

CCT018159 = compound: CCc1cc(-c2n[nH]c(C)c2-c2ccc3c(c2)OCCO3)c(O)cc1O [CCT018159]; details: top dose 10 µM; top dose inferred
Method: as §1

Dimethyloxalylglycine = compound: COC(=O)CNC(=O)C(=O)OC [Dimethyloxalylglycine]; details: top dose 4000 µM; top dose inferred
Method: as §1

BIX02189 = compound: CN(C)Cc1cccc(N=C(c2ccccc2)c2c(O)[nH]c3cc(C(=O)N(C)C)ccc23)c1 [BIX02189]; details: top dose 20 µM; top dose inferred
Method: as §1

17-AAG = compound: C=CCNC1=C2C[C@@H](C)C[C@H](OC)[C@H](O)[C@@H](C)/C=C(\C)[C@H](OC(N)=O)[C@@H](OC)/C=C\C=C(/C)C(=O)NC(=CC1=O)C2=O [17-AAG]; details: top dose 1 µM
Method: as §1

BMX-IN-1 (QL-XII-61) = compound: C=CC(=O)Nc1cc(-n2c(=O)ccc3cnc4ccc(-c5ccc(NS(C)(=O)=O)cc5)cc4c32)ccc1C [BMX-IN-1 (QL-XII-61)]; details: top dose 10 µM; top dose inferred
Method: as §1

Doxorubicin = compound: COc1cccc2c1C(=O)c1c(O)c3c(c(O)c1C2=O)C[C@@](O)(C(=O)CO)C[C@@H]3O[C@H]1C[C@H](N)[C@H](O)[C@H](C)O1 [Doxorubicin]; details: top dose 1.024 µM
Method: as §1

Vismodegib = compound: CS(=O)(=O)c1ccc(C(=O)Nc2ccc(Cl)c(-c3ccccn3)c2)c(Cl)c1 [Vismodegib]; details: top dose 10 µM; top dose inferred
Method: as §1

TG101348 = compound: Cc1cnc(Nc2ccc(OCCN3CCCC3)cc2)nc1Nc1cccc(S(=O)(=O)NC(C)(C)C)c1 [TG101348]; details: top dose 10.24 µM
Method: as §1

UNC1215 = compound: O=C(c1ccc(C(=O)N2CCC(N3CCCC3)CC2)c(Nc2ccccc2)c1)N1CCC(N2CCCC2)CC1 [UNC1215]; details: top dose 1 µM; top dose inferred
Method: as §1

VX-11e = compound: Cc1cnc(Nc2ccc(F)cc2Cl)nc1-c1c[nH]c(C(=O)N[C@H](CO)c2cccc(Cl)c2)c1 [VX-11e]; details: top dose 5.12 µM; top dose inferred
Method: as §1

Cell Line	AUC (OSI-027)	IC50 (OSI-027) [µM]	AUC (CCT018159)	IC50 (CCT018159) [µM]	AUC (Dimethyloxalylglycine)	IC50 (Dimethyloxalylglycine) [µM]	AUC (BIX02189)	IC50 (BIX02189) [µM]	AUC (17-AAG)	IC50 (17-AAG) [µM]	AUC (BMX-IN-1 (QL-XII-61))	IC50 (BMX-IN-1 (QL-XII-61)) [µM]	AUC (Doxorubicin)	IC50 (Doxorubicin) [µM]	AUC (Vismodegib)	IC50 (Vismodegib) [µM]	AUC (TG101348)	IC50 (TG101348) [µM]	AUC (UNC1215)	IC50 (UNC1215) [µM]	AUC (VX-11e)	IC50 (VX-11e) [µM]
8505C (thyroid, adherent)	0.549	1.72	0.908	> 10	0.624	561	0.94	> 20	0.864	0.966	0.977	> 10	0.336	0.0217	0.921	> 10	0.821	6.39	0.957	> 1	0.848	4.17
NCI-H1623 (lung adenocarcinoma, adherent)	0.934	> 20	0.91	> 10	0.385	112	0.974	> 20	0.836	0.885	0.969	> 10	0.8	0.625	0.985	> 10	0.976	> 10.2	0.983	> 1	0.974	> 5.12
JHU-022 (head and neck, adherent)	0.881	> 20	0.855	> 10	0.772	1970	0.975	> 20	0.448	0.0434	0.977	> 10	0.79	0.595	0.962	> 10	0.872	> 10.2	0.979	> 1	0.951	> 5.12
NCI-SNU-5 (stomach, suspension)	0.941	> 20	0.86	8.57	0.872	3890	0.989	> 20	0.418	0.0373	0.988	> 10	0.813	0.561	0.988	> 10	0.989	> 10.2	0.979	> 1	0.989	> 5.12
NB13 (neuroblastoma, adherent)	0.784	7.46	0.777	3.55	0.662	665	0.874	15.7	0.749	0.292	0.99	> 10	0.58	0.103	0.947	> 10	0.914	> 10.2	0.989	> 1	0.908	> 5.12
SK-MES-1 (lung squamous cell carcinoma, adherent)	0.481	1.1	0.894	> 10	0.459	191	0.971	> 20	0.435	0.0408	0.959	> 10	0.404	0.0341	0.976	> 10	0.699	2.45	0.983	> 1	0.951	> 5.12
NCI-H1694 (small cell lung carcinoma, suspension)	0.459	0.967	0.971	> 10	0.529	300	0.967	> 20	0.98	> 1	0.847	7.32	0.61	0.129	0.955	> 10	0.849	7.64	0.979	> 1	0.977	> 5.12
LB2518-MEL (melanoma, adherent)	0.984	> 20	0.98	> 10	0.515	274	0.98	> 20	0.707	0.248	0.986	> 10	0.758	0.372	0.981	> 10	0.987	> 10.2	0.986	> 1	0.828	3.38
K2 (melanoma, adherent)	0.627	3.11	0.982	> 10	0.648	729	0.977	> 20	0.799	0.651	0.863	> 10	0.703	0.285	0.982	> 10	0.975	> 10.2	0.97	> 1	0.765	2.43
TE-12 (oesophagus, suspension)	0.356	0.458	0.872	> 10	0.477	213	0.948	> 20	0.689	0.239	0.973	> 10	0.5	0.0641	0.922	> 10	0.852	> 10.2	0.978	> 1	0.933	> 5.12
NCI-H810 (large cell lung carcinoma, adherent)	0.344	0.47	0.852	7.24	0.628	553	0.944	> 20	0.935	> 1	0.884	> 10	0.3	0.018	0.975	> 10	0.726	2.71	0.984	> 1	0.962	> 5.12
SW982 (soft tissue, adherent)			0.899	> 10	0.242	43.7	0.956	> 20	0.426	0.0389	0.754	3.46	0.184	0.00698	0.959	> 10	0.698	2.35	0.983	> 1	0.967	> 5.12
GI-1 (glioma, adherent)	0.274	0.295	0.88	9.66	0.424	156	0.949	> 20	0.648	0.157	0.974	> 10	0.523	0.0738	0.957	> 10	0.793	4.46	0.986	> 1	0.972	> 5.12
ES-2 (ovary, adherent)	0.628	2.69	0.92	> 10	0.887	3530	0.903	> 20	0.858	0.668	0.99	> 10	0.842	0.594	0.966	> 10	0.905	> 10.2	0.99	> 1	0.855	3.33
GAK (melanoma, adherent)	0.746	6.08	0.974	> 10	0.671	727	0.985	> 20	0.635	0.145	0.974	> 10	0.718	0.255	0.981	> 10			0.986	> 1	0.886	> 5.12
SCC90 (head and neck, adherent)			0.932	> 10	0.87	> 4000			0.77	0.548	0.978	> 10	0.733	0.398	0.981	> 10			0.976	> 1		
H290 (mesothelioma, adherent)	0.182	0.155	0.932	> 10	0.518	279			0.846	0.638	0.987	> 10	0.626	0.138	0.989	> 10	0.91	> 10.2	0.988	> 1		
H2795 (mesothelioma, adherent)			0.905	> 10	0.753	1320	0.864	17	0.54	0.08	0.958	> 10	0.822	0.589	0.913	> 10	0.642	1.57	0.986	> 1	0.774	1.98
IST-SL2 (small cell lung carcinoma, suspension)	0.133	0.0883	0.971	> 10	0.425				0.983	> 1	0.968	> 10	0.521	0.0728	0.987	> 10	0.772	3.92	0.973	> 1		
STS-0421 (soft tissue, adherent)			0.881	> 10	0.698	998			0.924	> 1	0.896	> 10	0.406	0.0338	0.981	> 10			0.98	> 1		
NEC8 (testis, adherent)	0.876	14.8	0.911	> 10	0.589	420	0.927	> 20	0.91	> 1	0.972	> 10	0.403	0.0363	0.976	> 10	0.779	3.55			0.879	3.9
OS-RC-2 (kidney, adherent)	0.642	3.7	0.966	> 10	0.706	1260	0.912	> 20	0.691	0.275	0.975	> 10	0.621	0.16	0.938	> 10	0.808	8.56	0.908	> 1		
JHU-029 (head and neck, adherent)			0.876	> 10	0.664	798			0.961	> 1	0.977	> 10	0.283	0.0134	0.957	> 10			0.974	> 1		
K5 (thyroid, adherent)			0.866	8.29	0.441	174	0.952	> 20	0.723	0.26	0.746	3.06	0.558	0.0915	0.987	> 10	0.918	> 10.2	0.982	> 1	0.986	> 5.12
RKN (ovary, adherent)			0.963	> 10	0.553	351	0.959	> 20	0.92	> 1	0.793	4.85	0.771	0.415	0.979	> 10	0.843	7.85	0.984	> 1	0.791	2.46

IC50 is the fitted dose that halves viability relative to control wells, and lower means more sensitive; fits outside the tested doses are given as limits. AUC is the area under the same curve over the 256-fold range up to the top dose, as a fraction: 1 means no effect, lower means more sensitive. For some assays here: The top dose, if marked as inferred, is not printed in the source and was worked back from the curve model.
